Assay results reported in the supplement of paper PMC3724861.
Some of the results follow.

Each sequence was assayed on T1, Caupolican (Caup) homeodomain DNA-binding domain (assay: PBM E-score (8-mer, recovered from the published 9-mer minima) (E-score (dimensionless, -0.5 to 0.5)); Drosophila protein; higher = stronger relative binding preference, active = 0.31 or more).
T1 sequence: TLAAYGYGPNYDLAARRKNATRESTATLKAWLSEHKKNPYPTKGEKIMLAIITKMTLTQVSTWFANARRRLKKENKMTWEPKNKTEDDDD
Procedure, shortened: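 An enrichment score, with higher meaning stronger, expresses relative binding preference for each short DNA word. The protein used was Caup's homeodomain DNA-binding domain (residues 214-303), produced by in vitro transcription and translation and tested at 100 nM on custom-designed protein binding microarrays. The 8-mer values were recovered from published 9-mer scores, each equal to the lower of its two constituent 8-mer scores.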

| Sequence | PBM E-score |
| --- | --- |
| GACATCAA | inactive: 0.296 |
| ATTCGAGA | ≥ 0.043 |
| AAGGTATG | inactive: 0.103 |
| ACTTGTGA | ≥ 0.205 |
| AGTCCCTC | inactive: -0.146 |
| GGAAGGAA | inactive: -0.112 |
| CTCTCGGC | inactive: -0.224 |
| AAGTGGGA | ≥ 0.0343 |
| CCTCAACC | inactive: -0.119 |
| AGCTAGCC | inactive: -0.14 |
| ACTCCGTC | inactive: -0.144 |
| GCCCGAAC | inactive: -0.114 |
| ATGCCAGC | inactive: -0.0947 |
| CAGTCTCA | inactive: -0.042 |
| GGGATCCC | inactive: -0.186 |
| AGCATGAT | inactive: 0.197 |
| AGGGCACA | inactive: 0.0145 |
| AGACGTAG | inactive: -0.00632 |
| ATGGACGC | inactive: -0.044 |
| AGTAACAT | active: 0.316 |
| ACCTACGC | inactive: -0.0531 |
| AAGGCCGA | inactive: -0.0928 |
| AAACGATC | inactive: 0.0157 |
| GAATAGGC | inactive: -0.113 |

| Sequence | PBM E-score |
| --- | --- |
| CGGCCTCC | inactive: -0.267 |
| AGCTGACC | inactive: -0.0968 |
| CGCGAACG | inactive: -0.0783 |
| CATTTCAA | inactive: 0.154 |
| GAGGCATA | inactive: -0.0213 |
| GCTGGAAA | inactive: 0.0667 |
| CTCGGCCC | inactive: -0.266 |
| CTCCGATC | inactive: -0.156 |
| ACTCACAG | inactive: -0.0137 |
| AGGAATAG | ≥ 0.104 |
| AATCTCCG | inactive: -0.0947 |
| TGCCTGAA | inactive: -0.0479 |
| ACTGCCGG | inactive: -0.163 |
| AAAGTATC | inactive: 0.0669 |
| ATAAACCA | inactive: 0.0793 |
| ATCGCCTC | inactive: -0.0677 |
| AGCATTAC | inactive: 0.0828 |
| ACTACTGA | inactive: 0.0932 |
| GAAGGTGA | inactive: -0.0377 |
| AAAACTTC | inactive: -0.0128 |
| GGGATGAA | inactive: -0.11 |
| AGTGCTTC | inactive: -0.0183 |
| CCTAACTC | inactive: -0.0422 |
| CAAACGTC | inactive: -0.0552 |

| Sequence | PBM E-score |
| --- | --- |
| CTCTGCCA | inactive: -0.224 |
| GCATACCC | inactive: -0.0402 |
| CTCGGACA | inactive: 0.086 |
| ATATTAAC | inactive: 0.133 |
| ATAACAAC | active: 0.346 |
| GCTCGTTA | inactive: 0.104 |
| CTAATTGA | inactive: -0.00415 |
| CCACAATA | inactive: -0.00725 |
| AATGGCTC | inactive: -0.0437 |
| CGTAGGCA | inactive: -0.114 |
| ATTGTCTA | inactive: 0.194 |
| ATCTGATA | inactive: 0.0604 |
| GCAATCGC | inactive: -0.111 |
| ATACCTCC | inactive: -0.0147 |
| ACGCTCCA | inactive: -0.166 |
| CCCGCCCG | inactive: -0.177 |
| ACCTCCCC | inactive: -0.169 |
| GCGGTAAA | inactive: 0.0541 |
| ACAGGATA | inactive: 0.197 |
| TCATACCA | inactive: 0.0931 |
| AGATTGAA | inactive: 0.0897 |
| TCTCCGAA | inactive: -0.0458 |
| AACATACC | inactive: 0.303 |
| CAGACTTA | inactive: 0.0309 |

| Sequence | PBM E-score |
| --- | --- |
| CCTGACCA | inactive: -0.00358 |
| GCTACAGA | inactive: 0.0623 |
| CGCGGTAG | inactive: -0.115 |
| GAACTGCA | inactive: -0.0108 |
| GATATCAA | inactive: 0.122 |
| CATGGGAG | inactive: -0.1 |
| CAAGACTA | inactive: 0.107 |
| GACTCCAA | inactive: -0.055 |
| TGTGGCAA | inactive: -0.00688 |
| ACACTGAA | inactive: 0.198 |
| GCGACAAA | inactive: 0.0908 |
| ATCTCAAA | inactive: 0.0536 |
| AAATAGAG | inactive: 0.0477 |
| CCAAGCTA | inactive: -0.0659 |
| CGGGAACA | inactive: 0.176 |
| GAAGAGTA | inactive: 0.0189 |
| AACGACAG | inactive: 0.164 |
| GACGCCAA | inactive: -0.148 |
| TAGCCGGA | inactive: -0.154 |
| GGGCAAAC | inactive: -0.079 |
| CCCAGAAA | inactive: -0.0281 |
| AGTTGTGG | inactive: 0.0797 |
| ACCAAGCC | inactive: -0.0761 |
| AAGGCTAC | inactive: -0.0541 |

| Sequence | PBM E-score |
| --- | --- |
| CGTTCTGC | inactive: -0.104 |
| ACGTGTGG | inactive: 0.0393 |
| CTCGGCAC | inactive: -0.192 |
| CTACACCA | inactive: 0.212 |
| ATTCACCA | inactive: -0.00503 |
| CTTGTACA | active: 0.44 |
| ACACGTCT | inactive: 0.203 |
| AAACGAGC | inactive: 0.0966 |
| CCAACATC | inactive: 0.113 |
| CCTGAGCC | inactive: -0.224 |
| ACATGGTC | inactive: 0.285 |
| AAACCGCT | inactive: -0.0895 |
| AATCTAAG | inactive: 0.0545 |
| TCTTGGCA | inactive: -0.0494 |
| AGTTTAAT | inactive: 0.11 |
| CGCCTGGC | inactive: -0.214 |
| ACAAGACG | inactive: 0.257 |
| GAGCACCA | inactive: -0.0535 |
| CACACGTG | inactive: 0.148 |
| CCGCCAAG | inactive: -0.177 |
| CATCCGTA | inactive: 0.0622 |
| CAAGACTG | inactive: 0.144 |
| GATCAAGC | inactive: 0.0472 |
| AGGGGTGG | inactive: -0.154 |

| Sequence | PBM E-score |
| --- | --- |
| GGAAAGCA | inactive: 0.014 |
| CTGGTGAC | inactive: -0.112 |
| CAGATTGA | inactive: 0.0257 |
| GGTGGAGA | inactive: -0.232 |
| CAATAGTG | inactive: 0.019 |
| ATCTAGTG | inactive: 0.0489 |
| AGTAAGGG | inactive: -0.0567 |
| TGTCGAAA | inactive: 0.222 |
| CGAACTGC | inactive: -0.0462 |
| CGACTTAA | ≥ 0.0731 |
| GGCAATAA | inactive: 0.0723 |
| CTCCTGCC | inactive: -0.112 |
| AGAAACTG | inactive: 0.0017 |
| GATGCGAA | inactive: 0.0257 |
| ATGTATCC | active: 0.332 |
| GCACAATA | inactive: 0.0168 |
| ATTGGAAG | inactive: -0.0555 |
| ACCCTGCC | inactive: -0.244 |
| GGCTCGCA | inactive: -0.153 |
| AGGAATAA | ≥ 0.104 |
| ACAAATCT | inactive: 0.204 |
| ATACCATG | inactive: 0.174 |
| ACCTAAGA | inactive: 0.00757 |
